Source: the supplement of paper PMC12217912
The list shows a part of the results. Sequences were assembled here from the parent chain. Inactive controls read about 0.05.

B1: TEV protease; numbered along this chain (parent)
chain: MGESLFKGPRDYNPISSSICHLTNESDGHTTSLYGIGFGPFIITNKHLFRRNNGTLVVQSLHGVFKVKDTTTLQQHLVDGRDMIIIRMPKDFPPFPQKLKFREPQREERICLVTTNFQTKSMSSMVSDTSCTFPSGDGIFWKHWIQTKDGQCGSPLVSTRDGFIVGIHSASNFTNTNNYFTSVPKNFMELLTNQEAQQWVSGWRLNADSVLWGGHKVFMVKPEEPFQPVKEATQL

Variants of: B1
Test: raw area under fraction-flipped curve 0-4 h after induction (AUC4h, not background-subtracted), DNA-recorder readout of cleavage of the substrate (dimensionless); higher = more cleavage of the substrate by the protease variant
Conditions: temperature: 34 °C; time window: 0-4 h after rhamnose induction
Experimental: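 In vivo DNA recorder in E. coli TOP10(DE3) ΔrhaA at 34 °C. Each TEVp single-site mutant (parent TEVp 0) is paired with a single-site variant of the 7-mer TEVs (canonical ENLYFQ|S). The substrate sits between flexible linkers in a Bxb1-sfGFP-TEVs-SsrA fusion, so cleavage stabilises Bxb1 and speeds flipping of a recombination array, read by NGS. The value is the raw area under the fraction-flipped curve over 0-4 h after rhamnose induction (AUC4h), with ≥20 reads per time point. It is not background-subtracted; inactive controls average about 0.047.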
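Also: Bxb1 expression induced with 0.2% (w/v) L-rhamnose at OD600 near 0.5, cultures sampled hourly, flipped fraction per protease–substrate barcode pair counted by paired-end Illumina sequencing.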

Row | Variant | area with substrate ENLYFAS | area with substrate ENLYFCS | area with substrate ENLYFFS | area with substrate ENLYFIS | area with substrate ENLYFMS | area with substrate ENLYFRS | area with substrate ENLYFYS | area with substrate ENLYFES | area with substrate ENLYFGS | area with substrate ENLYFHS | area with substrate ENLYFKS | area with substrate ENLYFPS | area with substrate ENLYFSS | area with substrate ENLYFTS | area with substrate ENLYFWS | area with substrate ENLYFDS | area with substrate ENLYFLS | area with substrate ENLYFNS | area with substrate ENLYFVS
1 | MGESLFKGPRDYNPISSSICHLTNESDGHTTSLYGIGFGPFIITNKHLFRRNNGTLVVQSLHGVFKVKDTTTLQQHLVDGRDMIIIRCPKDFPPFPQKLKFREPQREERICLVTTNFQTKSMSSMVSDTSCTFPSGDGIFWKHWIQTKDGQCGSPLVSTRDGFIVGIHSASNFTNTNNYFTSVPKNFMELLTNQEAQQWVSGWRLNADSVLWGGHKVFMVKPEEPFQPVKEATQL [M88C] | 0.0409 | 0.0504 | 0.125 | 0.0538 | 0.0671 | 0.0521 | 0.0701 | – | – | – | – | – | – | – | – | – | – | – | –
2 | MGESLFKGPRDYNPISSSICHLTNESDGHTTSLYGIGFGPFIITNKHLFRRNNGTLVVQSLHGVFKVKDTTTLQQHLVDGRDMIIIRGPKDFPPFPQKLKFREPQREERICLVTTNFQTKSMSSMVSDTSCTFPSGDGIFWKHWIQTKDGQCGSPLVSTRDGFIVGIHSASNFTNTNNYFTSVPKNFMELLTNQEAQQWVSGWRLNADSVLWGGHKVFMVKPEEPFQPVKEATQL [M88G] | 0.0466 | 0.0567 | 0.0575 | 0.0515 | 0.0403 | 0.0505 | – | 0.0662 | 0.0443 | 0.0383 | 0.0398 | 0.0571 | 0.0409 | 0.0494 | 0.0432 | – | – | – | –
3 | MGESLFKGPRDYNPISSSICHLTNESDGHTTSLYGIGFGPFIITNKHLFRRNNGTLVVQSLHGVFKVKDTTTLQQHLVDGNDMIIIRMPKDFPPFPQKLKFREPQREERICLVTTNFQTKSMSSMVSDTSCTFPSGDGIFWKHWIQTKDGQCGSPLVSTRDGFIVGIHSASNFTNTNNYFTSVPKNFMELLTNQEAQQWVSGWRLNADSVLWGGHKVFMVKPEEPFQPVKEATQL [R81N] | 0.0829 | – | – | 0.0541 | 0.0639 | 0.0581 | – | 0.0437 | – | 0.0527 | – | 0.0689 | – | 0.0629 | 0.0577 | 0.0622 | 0.0611 | 0.0472 | 0.0588
4 | MGESLFKGPRDYNPISSSICHLTNESDGHTTSLYGIGFGPFIITNKHLFRRNNGTLVVQSLHGVFKVKDTTTLQQHLVDGTDMIIIRMPKDFPPFPQKLKFREPQREERICLVTTNFQTKSMSSMVSDTSCTFPSGDGIFWKHWIQTKDGQCGSPLVSTRDGFIVGIHSASNFTNTNNYFTSVPKNFMELLTNQEAQQWVSGWRLNADSVLWGGHKVFMVKPEEPFQPVKEATQL [R81T] | 0.067 | 0.0555 | 0.0614 | 0.0576 | 0.052 | 0.0478 | 0.0597 | 0.0624 | 0.0685 | 0.0648 | 0.0698 | 0.0654 | – | 0.0499 | 0.0606 | 0.0558 | – | 0.0606 | –
5 | MGESLFKGPRDYNPISSSICHLTNESDGHTTSLYGIGFGPFIITNKHLFRRNNGTLVVQSLHGVFKVKDTTTLQQHLVDGRDMIIIRMPKDFPPFLQKLKFREPQREERICLVTTNFQTKSMSSMVSDTSCTFPSGDGIFWKHWIQTKDGQCGSPLVSTRDGFIVGIHSASNFTNTNNYFTSVPKNFMELLTNQEAQQWVSGWRLNADSVLWGGHKVFMVKPEEPFQPVKEATQL [P96L] | 0.0602 | 0.0572 | 0.0642 | 0.0581 | 0.0665 | 0.0685 | 0.0556 | – | 0.0621 | – | – | 0.0633 | 0.0623 | – | – | – | – | – | 0.0457
6 | MGESLFKGPRDYNPISSSICHLTNESDGHTTSLYGIGFGPFIITNKHLFRRNNGTLVVQSLHGVFKVKDTTTLQQHLVDGRDMIIIRMPKDFPPFFQKLKFREPQREERICLVTTNFQTKSMSSMVSDTSCTFPSGDGIFWKHWIQTKDGQCGSPLVSTRDGFIVGIHSASNFTNTNNYFTSVPKNFMELLTNQEAQQWVSGWRLNADSVLWGGHKVFMVKPEEPFQPVKEATQL [P96F] | 0.0636 | 0.0511 | – | 0.0517 | 0.0507 | 0.0767 | 0.0535 | 0.0606 | – | – | – | 0.0577 | 0.0616 | – | 0.0576 | 0.0451 | – | 0.058 | –
7 | MGESLFKGPRDYNPISSSICHLTNESDGHTTSLYGIGFGPFIITNKHLFRRNNGTLVVQSLHGVFKVKDTTTLQQHLVDGRDMIIIRMPKDFPPFKQKLKFREPQREERICLVTTNFQTKSMSSMVSDTSCTFPSGDGIFWKHWIQTKDGQCGSPLVSTRDGFIVGIHSASNFTNTNNYFTSVPKNFMELLTNQEAQQWVSGWRLNADSVLWGGHKVFMVKPEEPFQPVKEATQL [P96K] | 0.0715 | 0.0662 | 0.0685 | 0.0542 | 0.0696 | 0.0346 | 0.0549 | 0.0918 | 0.069 | – | – | 0.0493 | – | 0.0445 | – | – | – | 0.0505 | –
8 | MGESLFKGPRDYNPISSSICHLTNESDGHTTSLYGIGFGPFIITNKHLFRRNNGTLVVQSLHGVFKVKDTTTLQQHLVDGRDMIIIRMPKDFPPFYQKLKFREPQREERICLVTTNFQTKSMSSMVSDTSCTFPSGDGIFWKHWIQTKDGQCGSPLVSTRDGFIVGIHSASNFTNTNNYFTSVPKNFMELLTNQEAQQWVSGWRLNADSVLWGGHKVFMVKPEEPFQPVKEATQL [P96Y] | 0.054 | 0.0546 | 0.021 | – | 0.0626 | 0.0537 | – | – | – | – | – | 0.0429 | 0.0794 | 0.0616 | 0.0683 | – | – | 0.0644 | –
9 | MGESLFKGPRDYNPISSSICHLTNESDGHTTSLYGIGFGPFIITNKHLFRRNNGTLVVQSLHGVFKVKDTTTLQQHLVDGRDMIIIRMPKDFPPFVQKLKFREPQREERICLVTTNFQTKSMSSMVSDTSCTFPSGDGIFWKHWIQTKDGQCGSPLVSTRDGFIVGIHSASNFTNTNNYFTSVPKNFMELLTNQEAQQWVSGWRLNADSVLWGGHKVFMVKPEEPFQPVKEATQL [P96V] | 0.057 | 0.0643 | 0.0641 | 0.0465 | 0.0634 | 0.0554 | 0.0723 | 0.0625 | 0.0665 | 0.0643 | 0.0709 | 0.0545 | – | 0.0438 | 0.0477 | 0.0717 | 0.0596 | 0.0582 | 0.0622
